Data published in PubChem BioAssay AID1159614 (National Center for Advancing Translational Sciences (NCATS), 2016).
Screen size: about 45,000 compounds; about 65 (0.1%) were called active. The call rests on the fitted dose curve; in most records, active means well fitted activation curve with a large enough effect; inconclusive means small, poorly fitted or top-dose-only effect; inactive means no such curve, though single readings can be large or run the other way. The list shows a part of the results.

target: Galactocerebrosidase (Homo sapiens) (UniProt P54803); test: A Novel Cell-Based Assay to Identify Small Molecules for B -Galactocerebrosidase; settings: 145M-Twi-hGALC-G270D cells (Twitcher mouse brain line with human GALC G270D), HMU-beta-Gal fluorescence, 48 h; series mostly up to 57.5 µM; activation: at the top concentration; further: 0% is about no effect; nearly all actives have a fitted effect of over 65% in size
Procedure, shortened: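 Fluorescence readout: HMU-β-gal cleavage by mutant GALC (0.1 mM final, citrate/phosphate pH 5.2 with 1 mg/mL taurocholate), stopped with carbonate/bicarbonate plus Triton X-100. Cells: murine Twitcher 145M-Twi expressing human G270D GALC; qHTS for activators.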

Chain of UniProt P54803 (P54803 whole entry, looked up): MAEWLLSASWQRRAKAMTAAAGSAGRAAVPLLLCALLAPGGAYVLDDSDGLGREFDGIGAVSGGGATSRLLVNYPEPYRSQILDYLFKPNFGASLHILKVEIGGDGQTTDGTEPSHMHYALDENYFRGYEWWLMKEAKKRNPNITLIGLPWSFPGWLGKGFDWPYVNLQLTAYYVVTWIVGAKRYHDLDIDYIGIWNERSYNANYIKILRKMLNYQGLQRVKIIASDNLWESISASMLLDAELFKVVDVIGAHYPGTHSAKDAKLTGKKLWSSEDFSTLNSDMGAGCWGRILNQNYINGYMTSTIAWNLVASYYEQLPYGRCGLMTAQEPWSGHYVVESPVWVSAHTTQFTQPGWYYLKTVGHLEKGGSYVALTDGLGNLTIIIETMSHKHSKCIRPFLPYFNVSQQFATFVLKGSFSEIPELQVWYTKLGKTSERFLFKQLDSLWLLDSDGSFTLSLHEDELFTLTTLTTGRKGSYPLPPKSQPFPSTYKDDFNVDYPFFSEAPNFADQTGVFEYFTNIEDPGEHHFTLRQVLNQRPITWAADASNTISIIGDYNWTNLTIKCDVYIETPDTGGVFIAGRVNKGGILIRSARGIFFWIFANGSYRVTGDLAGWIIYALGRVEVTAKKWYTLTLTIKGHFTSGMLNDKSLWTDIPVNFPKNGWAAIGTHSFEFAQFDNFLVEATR

activation, inactive:
COc1ccc(-c2nc(SCC(=O)Nc3ccc4c(c3)OCO4)c(-c3ccccc3)[nH]2)cc1 -15.3%
COc1cccc(CNC(=O)c2ccc3c(c2)N(C)C(=O)C2CCCCN32)c1 (stereo not given) -18.5%
Cc1ccccc1OCc1cc(=O)n2c(-c3ccccc3)csc2n1 -5.82%
CC(C)CCNC(=O)c1cn(C)c2ccc(S(=O)(=O)N3CCCC3)cc2c1=O -3.51%
CCOc1ccc(-c2cc3nc(C4CCN(C(=O)OC(C)(C)C)CC4)c(C(=O)Nc4ccc(C)c(F)c4)cn3n2)cc1 -11.1%
CCn1cc(C(=O)N2CCN(c3cc(Cl)ccc3C)CC2)c(=O)c2cc(S(=O)(=O)N3CCOCC3)ccc21 0.257%
CCC(=O)N1CCc2cc(Br)cc(S(=O)(=O)N3CCC(C(=O)N(CC)CC)CC3)c21 -16.8%
COc1ccc(Nc2nc3c(S(=O)(=O)c4ccc(Br)cc4)nnn3c3ccsc23)c(OC)c1 -14.1%
CC1CCN(c2cc3c(cc2F)c(=O)c(S(=O)(=O)c2ccc(Cl)cc2)cn3C)CC1 -21%
Cc1ccc(CNc2oc(-c3ccc(COc4ccc(Cl)cc4)o3)nc2C#N)cc1 -8.98%
CCOC(=O)c1c(NC(=O)c2cc(-c3ccc(Cl)cc3)on2)sc2c1CCCC2 -15.8%
CNS(=O)(=O)c1cc(-c2nn3c(C)nnc3c3ccccc23)ccc1C -10.9%
CCN1CCN(c2ncc3c(n2)CCN(Cc2sccc2C)C3)CC1 -13.2%
COc1cc(NC(=O)CC(C)S(=O)(=O)c2ccc3c(c2)CCN3C(C)=O)cc(OC)c1OC (stereo not given) -7.62%
O=C(CSc1nnc2scc(-c3ccc(Cl)cc3)n12)Nc1cccc(C(F)(F)F)c1 -27.3%
CCOc1ccc(Nc2nc(C)c(NC(=O)c3ccc(C)cc3)c(Nc3ccc(OCC)cc3)n2)cc1 1.72%
COc1ccc(Cl)cc1NC(=O)c1cnc(SC)nc1-c1ccccc1 -9.62%
Cc1ccccc1NC(=O)C(=O)NCC1(c2ccccc2)CCCC1 -6.71%
CCc1ccc(C(c2ccccc2)c2c[nH]c3ccc(C)cc23)s1 (stereo not given) -18.8%
CN(CC(=O)Nc1ccc(Cl)cc1F)S(=O)(=O)c1ccc2c(c1)n(C)c(=O)c(=O)n2C -7.91%
CC(C(=O)O)c1ccc(CC2CCCC2=O)cc1 (stereo not given) -8.61%
Cc1sc2ncn(CC(=O)N3CCN(c4ccccc4)CC3)c(=O)c2c1S(=O)(=O)N1CCN(c2ncccn2)CC1 0.2%
CCc1cccc(-n2nnc(-c3nsc(NC(=O)c4ccc(C)cc4)n3)c2C)c1 -17.8%
Cc1ccc(NC(=O)CN(C)S(=O)(=O)c2cccc3cccnc23)cc1F -6.84%
CCn1c(=O)c2cc(C(=O)N3CCN(c4cccc(OC)c4)CC3)sc2c2ccccc21 -7.05%
COc1ccc(Cl)cc1Nc1nc2ccc(C(=O)c3ccccc3)cc2n2cnnc12 -17.1%
CCOC(=O)Cc1ccc(NC(=O)N2CCc3c(sc4c3CCCC4)C2c2ccc(F)cc2)cc1 (stereo not given) -21.4%
Cc1ccc(NC(=O)[C@H]2O[C@@H]3OC(C)(C)O[C@@H]3[C@H]3OC(C)(C)O[C@H]32)cc1F -9.33%
Cc1ccc(NC(=O)c2cccc(N3CCCS3(=O)=O)c2)cc1C 3.25%
CC(C(=O)Nc1ccccc1C(F)(F)F)n1nnc2sc3c(c2c1=O)CCCC3 (stereo not given) -17.7%
Nc1ncnc2c1ncn2Cc1c(F)cccc1Cl -19.5%
CSc1nc(Nc2ccc(C)cc2)c(C#N)c(-c2ccccc2)n1 -20.3%
Cc1ccc2c(c1)C(c1ccccc1)N(C(=O)c1ccc(S(=O)(=O)N3CCCCC3)cc1)CC(=O)N2 (stereo not given) -15.2%
O=C(NCCn1cc(SCc2ccccc2F)c2ccccc21)c1cccs1 -14.4%
CCc1ccc(CNC(=O)CSc2c3c(nc4ccc(Cl)cc24)CCCC3)cc1 -6.4%
CCS(=O)(=O)NCC(c1ccco1)N1CCN(c2ccccc2)CC1 (stereo not given) 22.5%
O=c1c(=O)n(-c2ccccc2)ccn1Cc1cccc(C(F)(F)F)c1 -12%
O=C(NCc1ccc(F)cc1)c1ccc(CS(=O)Cc2ccc(Cl)cc2)o1 (stereo not given) -25.6%
Cc1ccc(NC(=O)c2cc3nc(-c4ccc5c(c4)OCO5)cc(C(F)(F)F)n3n2)cc1Cl -16.6%
Cc1ccc(CSc2ncc(Cl)c(C(=O)Nc3nc4ccc(C)cc4s3)n2)cc1 -15.2%
Oc1c(C(c2ccccc2)N2CCN(c3cccc(Cl)c3)CC2)sc2nc(-c3ccco3)nn12 (stereo not given) -16%
COc1cc(Cl)c(NC(=O)c2cc(CN3CCCC3)on2)c(OC)c1 4.88%
CCc1ccc(CNC(=O)C2CCCN(c3nnc(C)c4c(C)n(-c5ccc(OC)cc5)nc34)C2)cc1 (stereo not given) -8.61%
Cc1c(C(=O)Nc2ccccc2Cl)sc2ncnc(N(C)C3CCCCC3)c12 5.74%
Cc1ccc(N2CC(c3nnc(Cc4ccc(F)cc4)o3)CC2=O)cc1 (stereo not given) -9.57%
COc1ccccc1CNS(=O)(=O)c1cc(Br)cc2c1N(C(C)=O)C(C)C2 (stereo not given) -11.4%
O=C1COc2ccc(-c3cc(-c4ccc(F)cc4)c4c(n3)-c3cc(Cl)ccc3OC4)cc2N1 -16.7%
CC(C)c1ccc(NC(=O)C2CCCN(S(=O)(=O)c3cccc4nsnc34)C2)cc1 (stereo not given) -18.7%
COc1ccc2c(c1)CC(C(=O)Nc1cccc(C)c1C)CO2 (stereo not given) 0.123%
CC(CCc1ccccc1)NC(=O)Cn1c(=O)nc(-c2ccccc2F)c2cc(Cl)ccc21 (stereo not given) -14.3%
COc1ccc(Cn2ccnc2SCC(=O)NC2CCCC2)cc1 -1.36%
Cc1cccc(C)c1NC(=O)CSc1ncc2c(n1)-c1ccc(Cl)cc1N(Cc1ccccc1)S2(=O)=O -16.1%
Cc1oc(-c2ccccc2F)nc1CSCC(=O)NCc1ccccc1 -17.5%
COc1ccc(C2CC(=O)c3cnc4c(-c5ccccc5)c(C)nn4c3C2)cc1OC (stereo not given) -4.3%
CCOC(=O)Cn1c(=O)n(C2CCCCC2)c2nc(-c3ccc(OCC)cc3)nc(C(N)=O)c21 10.8%
CSc1ccc(CCNC(=O)c2ccc3c(c2)nc2n3CCCCC2)cc1 -13.7%
O=C(CSc1nccn1-c1ccc(Cl)cc1)Nc1cccc2ccccc12 -6.61%
C/C(=C(\CCO)SS/C(CCO)=C(\C)N(C=O)Cc1cnc(C)nc1N)N(C=O)Cc1cnc(C)nc1N -5.43%
COC(=O)c1ccc(NS(=O)(=O)c2c(C)nc3sccn3c2=O)cc1 -3.38%
COc1cccc(-n2ccnc2SCC(=O)Nc2ccc(Cl)c(Cl)c2)c1 -17.3%
